Many values rest on one well or one pass, so single values are uncertain.
Assays:
CHO-K1 [1] = assay: micronucleus frequency (% of nucleated events); higher = more micronuclei (genotoxic)
CHO-K1 [2] = assay: hypodiploid nuclei frequency (% of nucleated events); higher = more hypodiploid events (aneugenic)
Description: (§1)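 Flow-cytometric in vitro micronucleus assay (Litron MicroFlow) in CHO-K1 cells in 96-well plates, 19 concentrations (4.5-200 µM, n=1 per concentration). Without S9, cells were exposed for 24 h and sampled at 48 h. With Aroclor 1254-induced rat liver S9, cells were exposed for 3-4 h and sampled at 27-28 h. Read-outs are %MN and %hypodiploid nuclei relative to nucleated events, and relative survival as the nuclei-to-bead ratio versus the 1% DMSO vehicle control (x100).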

CHO-K1 [3] = assay: relative survival (nuclei to bead ratio vs DMSO control) (% of vehicle control); higher = more surviving cells
Description: as §1
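Throughout, for hypodiploid nuclei frequency (% of nucleated events): hypodiploid nuclei gated on a flow cytometer with 488 nm excitation after SYTOX Green staining, cultures at 37 °C, positive controls vinblastine without S9 and cyclophosphamide with S9.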
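Throughout, for micronucleus frequency (% of nucleated events): cells lysed with nuclei stained by SYTOX Green, then micronucleus-gated events counted against nucleated events by flow cytometry with 488 nm excitation.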
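Throughout, for relative survival (nuclei to bead ratio vs DMSO control): Lysed-cell nuclei stained with SYTOX Green and counted against counting beads by flow cytometry at 488 nm excitation, with vinblastine (no S9) and cyclophosphamide (plus S9) as positive controls.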

O=c1c(O)c(-c2ccc(O)c(O)c2)oc2cc(O)cc(O)c12 [Quercetin]
Settings	hypodiploid nuclei frequency, CHO-K1 [2] [%]	micronucleus frequency, CHO-K1 [1] [%]	relative survival, CHO-K1 [3]
concentration: 4.48 (µM), S9 metabolic activation: with S9, exposure time: 3-4 hours	0.24	1.2	102
concentration: 4.48 (µM), S9 metabolic activation: without S9, exposure time: 24 hours	0.82	2.24	93.6
concentration: 5.6 (µM), S9 metabolic activation: with S9, exposure time: 3-4 hours	0.3	1.3	82.7
concentration: 5.6 (µM), S9 metabolic activation: without S9, exposure time: 24 hours	0.74	2.34	138
concentration: 7 (µM), S9 metabolic activation: with S9, exposure time: 3-4 hours	0.14	1.22	97.7
concentration: 7 (µM), S9 metabolic activation: without S9, exposure time: 24 hours	0.78	2.52	112
concentration: 8.75 (µM), S9 metabolic activation: with S9, exposure time: 3-4 hours	0.34	1.36	110
concentration: 8.75 (µM), S9 metabolic activation: without S9, exposure time: 24 hours	0.86	2.9	115
concentration: 10.9 (µM), S9 metabolic activation: with S9, exposure time: 3-4 hours	0.12	0.86	121
concentration: 10.9 (µM), S9 metabolic activation: without S9, exposure time: 24 hours	0.76	1.68	107
concentration: 13.7 (µM), S9 metabolic activation: with S9, exposure time: 3-4 hours	0.34	1.36	117
concentration: 13.7 (µM), S9 metabolic activation: without S9, exposure time: 24 hours	0.96	1.74	116
concentration: 17.1 (µM), S9 metabolic activation: with S9, exposure time: 3-4 hours	0.22	1.24	104
concentration: 17.1 (µM), S9 metabolic activation: without S9, exposure time: 24 hours	0.86	2.18	111
concentration: 21.4 (µM), S9 metabolic activation: with S9, exposure time: 3-4 hours	0.2	1.06	93.5
concentration: 21.4 (µM), S9 metabolic activation: without S9, exposure time: 24 hours	0.66	1.88	99.6
concentration: 26.7 (µM), S9 metabolic activation: with S9, exposure time: 3-4 hours	0.3	1.26	102
concentration: 26.7 (µM), S9 metabolic activation: without S9, exposure time: 24 hours	0.52	2.02	84.7
concentration: 33.4 (µM), S9 metabolic activation: with S9, exposure time: 3-4 hours	0.22	1.34	87.5
concentration: 33.4 (µM), S9 metabolic activation: without S9, exposure time: 24 hours	0.92	1.56	98.8
concentration: 41.7 (µM), S9 metabolic activation: with S9, exposure time: 3-4 hours	0.14	1.1	81.3
concentration: 41.7 (µM), S9 metabolic activation: without S9, exposure time: 24 hours	0.72	1.64	103
concentration: 52.2 (µM), S9 metabolic activation: with S9, exposure time: 3-4 hours	0.26	1.26	97
concentration: 52.2 (µM), S9 metabolic activation: without S9, exposure time: 24 hours	0.92	1.76	89.2
concentration: 65.2 (µM), S9 metabolic activation: with S9, exposure time: 3-4 hours	0.28	1.32	97.3
concentration: 65.2 (µM), S9 metabolic activation: without S9, exposure time: 24 hours	1.04	2.12	106
concentration: 81.5 (µM), S9 metabolic activation: with S9, exposure time: 3-4 hours	0.16	1.7	121
concentration: 81.5 (µM), S9 metabolic activation: without S9, exposure time: 24 hours	0.96	1.42	89.2
concentration: 102 (µM), S9 metabolic activation: with S9, exposure time: 3-4 hours	0.12	1.4	108
concentration: 102 (µM), S9 metabolic activation: without S9, exposure time: 24 hours	1.22	1.5	92.8
concentration: 127 (µM), S9 metabolic activation: with S9, exposure time: 3-4 hours	0.2	1.46	95.1
concentration: 127 (µM), S9 metabolic activation: without S9, exposure time: 24 hours	1.26	2.44	106
concentration: 159 (µM), S9 metabolic activation: with S9, exposure time: 3-4 hours	0.26	1.24	136
concentration: 159 (µM), S9 metabolic activation: without S9, exposure time: 24 hours	1.5	3.06	107
concentration: 199 (µM), S9 metabolic activation: with S9, exposure time: 3-4 hours	0.14	1.2	82.5
concentration: 199 (µM), S9 metabolic activation: without S9, exposure time: 24 hours	1.54	2.16	94

— the supplement of paper PMC9151546
